# From PMC5836133
# The other results are listed elsewhere or left out. At the low end of the ranking the order means little.
# System: T1, GST-NbGlk1(82-244)
# T1 sequence: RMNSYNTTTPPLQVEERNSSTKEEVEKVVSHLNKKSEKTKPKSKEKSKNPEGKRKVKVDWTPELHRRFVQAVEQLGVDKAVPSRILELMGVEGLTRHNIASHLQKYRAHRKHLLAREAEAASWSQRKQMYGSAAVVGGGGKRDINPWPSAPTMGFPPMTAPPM
# Assay: protein-binding microarray;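 note: rank-based score ranging −0.5 to +0.5 with E above 0.45 taken as significant binding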
# Conditions: NbGlk1 is a Golden2-like transcription factor of Nicotiana benthamiana; high values mean tight binding; most listed sequences are background and not binding sites; double strand, one strand shown
row,Sequence,binding signal
1,CAATACTA,0.0375 E-score
2,AAGAACCA,-0.179 E-score
3,ATCCCGGA,0.308 E-score
4,ATCGTTGG,-0.0748 E-score
5,CAGAGTTA,-0.0326 E-score
6,AGGGACCT,-0.3 E-score
7,AGGTGGAG,-0.24 E-score
8,AGCTAGAA,0.033 E-score
9,AGTCCCTG,-0.105 E-score
10,ACAACATA,0.12 E-score
11,ATCCGGGG,0.279 E-score
12,AAGTGAAT,0.124 E-score
13,ATTGGGGG,-0.171 E-score
14,AATACTCA,0.147 E-score
15,CAAGGCCA,-0.158 E-score
16,AGACACGG,-0.048 E-score
17,ATAAGCGG,-0.0581 E-score
18,ATGCATCG,-0.0548 E-score
19,ACTCCTAG,-0.237 E-score
20,ATAGTGCA,0.0316 E-score
21,AGCCAGAG,-0.243 E-score
22,AGTAATAA,0.0565 E-score
23,CACTTTAC,0.0634 E-score
24,ATATGTTG,0.173 E-score

row,Sequence,binding signal
1,ATTATGTC,0.111 E-score
2,ATATTAGC,0.208 E-score
3,ATCCTTGC,0.135 E-score
4,ATTCTTTA,0.258 E-score
5,AGTCCCGA,-0.0862 E-score
6,AACTTCAC,-0.184 E-score
7,AGATTGTG,0.421 E-score
8,AGCTCGCC,-0.245 E-score
9,ACATACTA,-0.0393 E-score
10,AATGGGGT,0.0771 E-score
11,AAAACGGG,-0.102 E-score
12,ATGTACAG,0.0591 E-score
13,ACTGTAAA,0.201 E-score
14,AGTTCTGA,0.0364 E-score
15,ACAACGTG,-0.206 E-score
16,AAAAGCTA,0.00274 E-score
17,ATTTAATA,0.0961 E-score
18,ATCTGGGA,0.334 E-score
19,CAACTTGG,-0.146 E-score
20,ATGTGGAA,0.0185 E-score
21,CAAGACCA,-0.0988 E-score
22,AGGCTACC,-0.192 E-score
23,ACAGTAAA,0.0615 E-score
24,ACTAGTAA,0.104 E-score

row,Sequence,binding signal
1,ATCTTCAC,0.352 E-score
2,AGCAGCAG,-0.111 E-score
3,ATGCTTCG,-0.0511 E-score
4,ATGACTAC,0.023 E-score
5,AACAGTTA,0.0655 E-score
6,CAAGTATA,0.15 E-score
7,CAATTCCC,0.217 E-score
8,ATCATCCG,0.0645 E-score
9,AGATTTTA,0.414 E-score
10,AACGAGGT,-0.115 E-score
11,AGCACCCT,-0.226 E-score
12,ACTTCAAA,0.0538 E-score
13,CACTTTCA,0.00838 E-score
14,ATGCCCGC,-0.0264 E-score
15,CAACTCAC,-0.0977 E-score
16,AGCAGCCT,-0.298 E-score
17,AGATTAAG,0.153 E-score
18,ATAGCAGA,0.0836 E-score
19,ACCCATTC,-0.172 E-score
20,ACCAGGAG,-0.193 E-score
21,AGCCGGGC,-0.379 E-score
22,AAGATGGT,-0.138 E-score
23,ATTAGTGG,0.167 E-score
24,AAGACTGA,0.0352 E-score

row,Sequence,binding signal
1,AGGCCCCG,-0.317 E-score
2,AGTGCCCC,-0.229 E-score
3,AAAGGTTA,-0.078 E-score
4,AAGCGCAA,0.0458 E-score
5,AGACTTAC,-0.103 E-score
6,AGAGGTGC,-0.264 E-score
7,ACCGTTAT,0.041 E-score
8,AACATGAG,0.106 E-score
9,CAACGGTG,-0.205 E-score
10,ACTCGGAC,-0.292 E-score
11,AGATCGAG,0.103 E-score
12,ATGACACC,-0.149 E-score
13,ATGGTACG,0.066 E-score
14,ACGGTATC,0.297 E-score
15,AATTAATT,0.142 E-score
16,ACCTACGG,-0.0715 E-score
17,ATTTTTAC,0.313 E-score
18,ACGACACG,-0.216 E-score
19,AACCTAGT,-0.0506 E-score
20,AGACCGCG,-0.21 E-score
21,ACTTACCC,-0.159 E-score
22,AACGCCAT,0.0511 E-score
